Data from PMC12820563, “FoxP3 forms a head-to-head dimer in vivo and stabilizes its multimerization on adjacent microsatellites”.
The list shows a part of the results.

target: T1, MBP-FoxP1dN (Mus musculus, UniProt P58462 326-579); assay: PD-seq (MBP pull-down with sequencing); 20 mM Tris-HCl pH 7.5, 100 mM NaCl, 1.5 mM MgCl2, 0.4 uM protein, 0.1 uM dsDNA library, 30 min, room temperature, amylose pull-down; high values mean tight binding; details: protein: recombinant; tags: His6-MBP; chain copies: 2; dsDNA, one strand shown
T1 sequence: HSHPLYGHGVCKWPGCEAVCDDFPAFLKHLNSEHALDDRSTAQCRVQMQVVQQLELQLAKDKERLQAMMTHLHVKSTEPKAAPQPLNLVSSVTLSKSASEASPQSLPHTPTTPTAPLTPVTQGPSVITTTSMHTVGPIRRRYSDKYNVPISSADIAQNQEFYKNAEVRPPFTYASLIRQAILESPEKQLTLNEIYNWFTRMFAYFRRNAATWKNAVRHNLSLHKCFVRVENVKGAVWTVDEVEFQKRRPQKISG
Summary of the method: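 In Tris pH 7.5 buffer with NaCl and MgCl2, 0.4 µM His6-MBP-tagged mouse FoxP3 or FoxP1 fragment lacking the N-terminus, from E. coli, met 0.1 µM Klenow-filled double-stranded degenerate DNA library for 30 min at room temperature. Three washes on amylose resin followed capture of the complexes, then proteinase K release of DNA, PCR barcoding and Illumina sequencing. Binding is taken as pooled-replicate reads-per-million enrichment of pull-down relative to input.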

Sequence | binding signal
GATGATTGTTCTCCCAGCTGATGAATTCTTCCGCTCGAGTAAACAAATTTTCCTAATCTTTCTGTTCAAGCGCCATCTAC | 0.839 RPM ratio (pull-down/input)
GATGATTGTTCTCCCAGCTGATGAATTAAATCGATCGAGTAAACAAATTTTCCTAATCTTTCTGTTCAAGCGCCATCTAC | 0.947 RPM ratio (pull-down/input)
GATGATTGTTCTCCCAGCTGATGAATTTATAGGCTCGAGTAAACAAATTTTCCTAATCTTTCTGTTCAAGCGCCATCTAC | 0.927 RPM ratio (pull-down/input)
GATGATTGTTCTCCCAGCTGATGAATTGTCAGTCTCGAGTAAACAAATTTTCCTAATCTTTCTGTTCAAGCGCCATCTAC | 0.947 RPM ratio (pull-down/input)
GATGATTGTTCTCCCAGCTGATGAATTAATGGACTCGAGTAAACAAATTTTCCTAATCTTTCTGTTCAAGCGCCATCTAC | 0.859 RPM ratio (pull-down/input)
GATGATTGTTCTCCCAGCTGATGAATTAGTTGAATCGAGTAAACAAATTTTCCTAATCTTTCTGTTCAAGCGCCATCTAC | 1.01 RPM ratio (pull-down/input)
GATGATTGTTCTCCCAGCTGATGAATTAGTTGTCTCGAGTAAACAAATTTTCCTAATCTTTCTGTTCAAGCGCCATCTAC | 1.15 RPM ratio (pull-down/input)
GATGATTGTTCTCCCAGCTGATGAATTCGTCGTCTCGAGTAAACAAATTTTCCTAATCTTTCTGTTCAAGCGCCATCTAC | 0.867 RPM ratio (pull-down/input)
GATGATTGTTCTCCCAGCTGATGAATTATTACAATCGAGTAAACAAATTTTCCTAATCTTTCTGTTCAAGCGCCATCTAC | 1.49 RPM ratio (pull-down/input)
GATGATTGTTCTCCCAGCTGATGAATTAAGGGGTTCGAGTAAACAAATTTTCCTAATCTTTCTGTTCAAGCGCCATCTAC | 0.849 RPM ratio (pull-down/input)
GATGATTGTTCTCCCAGCTGATGAATTACCAATATCGAGTAAACAAATTTTCCTAATCTTTCTGTTCAAGCGCCATCTAC | 1.79 RPM ratio (pull-down/input)
GATGATTGTTCTCCCAGCTGATGAATTGCCCGGCTCGAGTAAACAAATTTTCCTAATCTTTCTGTTCAAGCGCCATCTAC | 0.786 RPM ratio (pull-down/input)
GATGATTGTTCTCCCAGCTGATGAATTAGGGTGTTCGAGTAAACAAATTTTCCTAATCTTTCTGTTCAAGCGCCATCTAC | 0.925 RPM ratio (pull-down/input)
GATGATTGTTCTCCCAGCTGATGAATTTTAGATCTCGAGTAAACAAATTTTCCTAATCTTTCTGTTCAAGCGCCATCTAC | 0.866 RPM ratio (pull-down/input)
GATGATTGTTCTCCCAGCTGATGAATTTCCGTCATCGAGTAAACAAATTTTCCTAATCTTTCTGTTCAAGCGCCATCTAC | 1 RPM ratio (pull-down/input)
GATGATTGTTCTCCCAGCTGATGAATTCTGCTCGTCGAGTAAACAAATTTTCCTAATCTTTCTGTTCAAGCGCCATCTAC | 0.836 RPM ratio (pull-down/input)
GATGATTGTTCTCCCAGCTGATGAATTGTATTCTTCGAGTAAACAAATTTTCCTAATCTTTCTGTTCAAGCGCCATCTAC | 1.26 RPM ratio (pull-down/input)
GATGATTGTTCTCCCAGCTGATGAATTAGTTAGGTCGAGTAAACAAATTTTCCTAATCTTTCTGTTCAAGCGCCATCTAC | 0.922 RPM ratio (pull-down/input)
GATGATTGTTCTCCCAGCTGATGAATTGGCAATCTCGAGTAAACAAATTTTCCTAATCTTTCTGTTCAAGCGCCATCTAC | 0.856 RPM ratio (pull-down/input)
GATGATTGTTCTCCCAGCTGATGAATTTGCAGCTTCGAGTAAACAAATTTTCCTAATCTTTCTGTTCAAGCGCCATCTAC | 0.912 RPM ratio (pull-down/input)

Sequence | binding signal
GATGATTGTTCTCCCAGCTGATGAATTTCAGTACTCGAGTAAACAAATTTTCCTAATCTTTCTGTTCAAGCGCCATCTAC | 0.776 RPM ratio (pull-down/input)
GATGATTGTTCTCCCAGCTGATGAATTGTACAACTCGAGTAAACAAATTTTCCTAATCTTTCTGTTCAAGCGCCATCTAC | 1.03 RPM ratio (pull-down/input)
GATGATTGTTCTCCCAGCTGATGAATTGTACGGATCGAGTAAACAAATTTTCCTAATCTTTCTGTTCAAGCGCCATCTAC | 0.867 RPM ratio (pull-down/input)
GATGATTGTTCTCCCAGCTGATGAATTAGTCACATCGAGTAAACAAATTTTCCTAATCTTTCTGTTCAAGCGCCATCTAC | 1.16 RPM ratio (pull-down/input)
GATGATTGTTCTCCCAGCTGATGAATTAGCCACATCGAGTAAACAAATTTTCCTAATCTTTCTGTTCAAGCGCCATCTAC | 1.01 RPM ratio (pull-down/input)
GATGATTGTTCTCCCAGCTGATGAATTACCCAGCTCGAGTAAACAAATTTTCCTAATCTTTCTGTTCAAGCGCCATCTAC | 0.917 RPM ratio (pull-down/input)
GATGATTGTTCTCCCAGCTGATGAATTCTCAAGGTCGAGTAAACAAATTTTCCTAATCTTTCTGTTCAAGCGCCATCTAC | 0.736 RPM ratio (pull-down/input)
GATGATTGTTCTCCCAGCTGATGAATTTATCGCCTCGAGTAAACAAATTTTCCTAATCTTTCTGTTCAAGCGCCATCTAC | 1.09 RPM ratio (pull-down/input)
GATGATTGTTCTCCCAGCTGATGAATTGCGGACCTCGAGTAAACAAATTTTCCTAATCTTTCTGTTCAAGCGCCATCTAC | 0.95 RPM ratio (pull-down/input)
GATGATTGTTCTCCCAGCTGATGAATTTACCTTATCGAGTAAACAAATTTTCCTAATCTTTCTGTTCAAGCGCCATCTAC | 1.41 RPM ratio (pull-down/input)
GATGATTGTTCTCCCAGCTGATGAATTGGCTCAATCGAGTAAACAAATTTTCCTAATCTTTCTGTTCAAGCGCCATCTAC | 0.972 RPM ratio (pull-down/input)
GATGATTGTTCTCCCAGCTGATGAATTTTGAGCATCGAGTAAACAAATTTTCCTAATCTTTCTGTTCAAGCGCCATCTAC | 1.18 RPM ratio (pull-down/input)
GATGATTGTTCTCCCAGCTGATGAATTCGAAAAGTCGAGTAAACAAATTTTCCTAATCTTTCTGTTCAAGCGCCATCTAC | 0.816 RPM ratio (pull-down/input)
GATGATTGTTCTCCCAGCTGATGAATTTCGCCCGTCGAGTAAACAAATTTTCCTAATCTTTCTGTTCAAGCGCCATCTAC | 0.834 RPM ratio (pull-down/input)
GATGATTGTTCTCCCAGCTGATGAATTATTGGATTCGAGTAAACAAATTTTCCTAATCTTTCTGTTCAAGCGCCATCTAC | 1.05 RPM ratio (pull-down/input)
GATGATTGTTCTCCCAGCTGATGAATTGCTTCTCTCGAGTAAACAAATTTTCCTAATCTTTCTGTTCAAGCGCCATCTAC | 1.03 RPM ratio (pull-down/input)
GATGATTGTTCTCCCAGCTGATGAATTTTTTTCTTCGAGTAAACAAATTTTCCTAATCTTTCTGTTCAAGCGCCATCTAC | 0.877 RPM ratio (pull-down/input)
GATGATTGTTCTCCCAGCTGATGAATTCGGTTCGTCGAGTAAACAAATTTTCCTAATCTTTCTGTTCAAGCGCCATCTAC | 0.853 RPM ratio (pull-down/input)
GATGATTGTTCTCCCAGCTGATGAATTGGGTCGCTCGAGTAAACAAATTTTCCTAATCTTTCTGTTCAAGCGCCATCTAC | 0.828 RPM ratio (pull-down/input)
GATGATTGTTCTCCCAGCTGATGAATTTCCAGATTCGAGTAAACAAATTTTCCTAATCTTTCTGTTCAAGCGCCATCTAC | 0.826 RPM ratio (pull-down/input)
